Reference: the supplement of paper PMC11417369
± gives the standard deviation of the averaged measurements. The list shows a part of the results.

tested on: PfAP2-G AP2 domain (GST-tagged); experiment: gcPBM binding intensity (ln(normalized median fluorescence intensity)); higher = stronger DNA binding
Summary of the method: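 The highest Masliner-normalised natural-log median intensity across replicate spots of either probe orientation is reported as binding intensity. GST-tagged P. falciparum DNA-binding domains expressed in E. coli were applied for 1 h to an Agilent 4 × 180k array of primer-extended double-stranded 36-bp intergenic genomic probes plus negative controls, and bound protein was detected with Alexa488 anti-GST antibody and scanned at 488 nm.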

For “AGAAAGTAAAGCTGTTGTACTATTATATATATTTTA [XGTACX_site8090]”, which “gcPBM binding intensity (ln)” value is on record?
The value was 11 ± 0.66.

Which “gcPBM binding intensity (ln)” value does the source give for “TTTGTTTGATATATGTGTACATATATATATTATGCT [XGTACX_site3522]” here?
Its value is 11.4 ± 0.69.

For “TTTCTTTTTAAATAATAATGTATAATAAAAAGTTCA [TGCATGCA_negctrl_site195]”, which “gcPBM binding intensity (ln)” value is on record?
The value was 9.86 ± 0.4.

With “TATAATATGTATATCTGTACATATTTTAAATCTAAT [XGTACX_site2426]” as the sequence, how does the “gcPBM binding intensity (ln)” value read?
The value was 11 ± 0.94.

AAGTACAATTCATGTATGCACTTTATTATATTTTAT was tested. Which “gcPBM binding intensity (ln)” value did it give?
Its value is 10.7 ± 0.37.

With “TGTTATGAGAACAGCACACAAGCTACATCATATATA [CACACA_site870]” as the sequence, how does the “gcPBM binding intensity (ln)” value read?
Its value is 9.99 ± 0.18.

Which “gcPBM binding intensity (ln)” value does the source give for “TATATATAAGATTGATGTACGATTTTGGTGTCTTAT [XGTACX_site2611]” here?
Its value is 11.2 ± 0.82.

Which “gcPBM binding intensity (ln)” value does the source give for “ATAATAATATATAGTACACACAAAAATGGAAGTAAA [CACACA_site3318]” here?
The value was 11.3 ± 0.73.

“TATTATAGTATATATTGTACATATATATATTTTTTA [XGTACX_site8831]” was tested. Which “gcPBM binding intensity (ln)” value did it give?
Its value is 11 ± 0.68.

With “AAAGTATAAATAAATACACACATATTTATTTATATA [CACACA_site7375]” as the sequence, how does the “gcPBM binding intensity (ln)” value read?
The value was 9.96 ± 0.2.

With “TAAAAATATTATAATGCATGCAAAATATTGTTATAA [TGCATGCA_site244]” as the sequence, how does the “gcPBM binding intensity (ln)” value read?
The value was 9.53 ± 0.15.

How did the “gcPBM binding intensity (ln)” value turn out when “ATAGTTTTTCCAATTCAAAAAAAAAAAAAAAAAAAA [CACACA_negctrl_site969]” was run?
Its value is 9.69 ± 0.41.

Which “gcPBM binding intensity (ln)” value does the source give for “AACATATGATTAAACTGTACAAGAAAAATATAACAT [XGTACX_site4477]” here?
The value was 10.9 ± 0.42.

For “GAGAGGATCATCAATTCACACACATAAAAATGAAGT [CACACA_site9010]”, which “gcPBM binding intensity (ln)” value is on record?
The value was 9.915 ± 0.007.

“TTATATAATGACAAAAAAAAAAAAAAAAAAAAAAAA [CACACA_negctrl_site1467]” was tested. Which “gcPBM binding intensity (ln)” value did it give?
The value was 9.75 ± 0.35.

Which “gcPBM binding intensity (ln)” value does the source give for “GTATGATTACAAGAAAGTAGTCCACTTTAACAACAA [CACACA_negctrl_site1304]” here?
The value was 11.3 ± 0.75.

For “TAGATATTTTTGAAAAGTACAAATTTTTAAAAATTA [XGTACX_site4420]”, which “gcPBM binding intensity (ln)” value is on record?
Its value is 11 ± 0.87.

“ATGTACATAAACCGCACACATATAAAAAAATAAATA [CACACA_site5571]” was tested. Which “gcPBM binding intensity (ln)” value did it give?
The value was 11.1 ± 0.78.

For “AGTCCATTTTATTATTGTACATATTAATTTATATCA [XGTACX_site672]”, which “gcPBM binding intensity (ln)” value is on record?
The value was 11.1 ± 0.66.

How did the “gcPBM binding intensity (ln)” value turn out when “ATTCAGAGTATATAAAAATTAATATATACATAATAT [CACACA_negctrl_site1782]” was run?
Its value is 9.73 ± 0.014.

Which “gcPBM binding intensity (ln)” value does the source give for “TAATTTATCCTATAATGTACTTATAAAATATATCAT [XGTACX_site1460]” here?
Its value is 11.1 ± 0.74.

With “AAAAAAAAAAAATACACACAAACACAAATTAAATAA [CACACA_site3809]” as the sequence, how does the “gcPBM binding intensity (ln)” value read?
Its value is 9.895 ± 0.021.

Which “gcPBM binding intensity (ln)” value does the source give for “ATTATAGAATATTGAAGTACAAAATTTAAAATAAGT [XGTACX_site1468]” here?
Its value is 11.1 ± 0.67.

How did the “gcPBM binding intensity (ln)” value turn out when “TAGGAAAATTACAAAAGTACTTGGCACATAATAATG [XGTACX_site6005]” was run?
The value was 11.1 ± 0.46.

Which “gcPBM binding intensity (ln)” value does the source give for “AATATTTTGTTATTTATTTAATCTAATATTACTATC [CACACA_negctrl_site4]” here?
The value was 9.695 ± 0.078.

For “ATATATATATAAATATGTACATATATACATATATAC [XGTACX_site2374]”, which “gcPBM binding intensity (ln)” value is on record?
The value was 11.2 ± 0.82.

Which “gcPBM binding intensity (ln)” value does the source give for “AAATAACATAATAAGGGTACATTAATTTCGATAATG [XGTACX_site835]” here?
Its value is 11.2 ± 0.79.

For “ATCATATCCACCAAATGAATAATATAAAATAATATA [XGTACX_negctrl_site193]”, which “gcPBM binding intensity (ln)” value is on record?
Its value is 9.86 ± 0.22.

How did the “gcPBM binding intensity (ln)” value turn out when “TATATATATATATATGCACACATTTATACAATTTTA [CACACA_site2986]” was run?
Its value is 10.2 ± 0.56.

Which “gcPBM binding intensity (ln)” value does the source give for “AAATATCTACAAATATGTACATATTTTTTTTGGCTT [XGTACX_site6301]” here?
The value was 11.3 ± 0.73.

For “AGAAAAAAAAAAAAAAAACACACGGTACATCCAAAG [CACACA_site124]”, which “gcPBM binding intensity (ln)” value is on record?
Its value is 10.8 ± 0.41.

How did the “gcPBM binding intensity (ln)” value turn out when “ATCAAATTATAATCATGTACAAATAAAAAAAAAAAA [XGTACX_site313]” was run?
The value was 10.7 ± 0.65.

For “ATAGAAGCTGTTGACGAAGAAAAAAAAAAAAAAAAA [CACACA_negctrl_site110]”, which “gcPBM binding intensity (ln)” value is on record?
The value was 9.82 ± 0.47.

For “CATATAAATAAACACACACACACATATATATATATA [CACACA_site5309]”, which “gcPBM binding intensity (ln)” value is on record?
The value was 10.2 ± 0.4.

“TAAAATTAAATGAAATCATTATTCATTTTTATTTTA [CACACA_negctrl_site1281]” was tested. Which “gcPBM binding intensity (ln)” value did it give?
The value was 9.28 ± 0.24.

With “ATTCTTTTTTTTTTCTTATATTCTAATCACCACCTT [XGTACX_negctrl_site179]” as the sequence, how does the “gcPBM binding intensity (ln)” value read?
Its value is 10.1 ± 0.49.

“ATGAAATTATTATATAAACACACATTTATTTTATTT [CACACA_site8597]” was tested. Which “gcPBM binding intensity (ln)” value did it give?
The value was 9.54 ± 0.22.

With “AATAGGTGCCTTTTTTCACACACATGTCAACTAAAT [CACACA_site8846]” as the sequence, how does the “gcPBM binding intensity (ln)” value read?
The value was 10.2 ± 0.21.

With “TTTGGTAAGCGTGTCGCATGTAGAACAAGTCTACAT [TGCATGCA_site577]” as the sequence, how does the “gcPBM binding intensity (ln)” value read?
The value was 10.2 ± 0.14.

With “ATTAAAATGGAGTATTAATATGATATATATATATAT [GTGCAC_negctrl_site509]” as the sequence, how does the “gcPBM binding intensity (ln)” value read?
Its value is 10.3 ± 0.42.

How did the “gcPBM binding intensity (ln)” value turn out when “AGGAACATTTACGCCCCACACACCTACCAACAAAAA [CACACA_site3827]” was run?
Its value is 10.6 ± 0.4.

For “TAAATACAGACATACACACATACACCCACATATATA [CACACA_site547]”, which “gcPBM binding intensity (ln)” value is on record?
The value was 10.3 ± 0.24.

With “TTACAACCATAAAATGCATGTAAATGACAAAAAAAA [TGCATGCA_site944]” as the sequence, how does the “gcPBM binding intensity (ln)” value read?
The value was 10 ± 0.17.

With “AATATATATATATATTGTACACACATTTATGCATAT [XGTACX_site6856]” as the sequence, how does the “gcPBM binding intensity (ln)” value read?
The value was 11.2 ± 0.61.

Which “gcPBM binding intensity (ln)” value does the source give for “TATATATATATTTTTGGTACAGATATTTTCTTCTCT [XGTACX_site4432]” here?
Its value is 10.6 ± 0.33.

For “ACATAATATACTATTGTGCACATATATATATATATA [GTGCAC_site9761]”, which “gcPBM binding intensity (ln)” value is on record?
The value was 10.4 ± 0.24.

For “TTTTTATTTTTTTATTTCTTATCAAATAAAATATAT [XGTACX_negctrl_site537]”, which “gcPBM binding intensity (ln)” value is on record?
Its value is 9.76.

For “GTTAATTTAATTATATGTACGAAAAAATACGTTATA [XGTACX_site1306]”, which “gcPBM binding intensity (ln)” value is on record?
The value was 11 ± 0.72.

“TCTTAATATGGTAATACACACTAATATACTTTTGTT [CACACA_site4969]” was tested. Which “gcPBM binding intensity (ln)” value did it give?
Its value is 10.01 ± 0.049.

For “TTACAAAAAGGTAATTTACACACTGCATATAGGAAT [CACACA_site8956]”, which “gcPBM binding intensity (ln)” value is on record?
The value was 10.2 ± 0.11.

With “TGCTCAAACTTTACAAATGAACGAATATAAAAAAAG [CACACA_negctrl_site541]” as the sequence, how does the “gcPBM binding intensity (ln)” value read?
Its value is 10.1 ± 0.13.

How did the “gcPBM binding intensity (ln)” value turn out when “AAATAATCATAAAATAAACACACATATATAAATATA [CACACA_site7981]” was run?
The value was 9.775 ± 0.078.

How did the “gcPBM binding intensity (ln)” value turn out when “ACCCTTCAATTTAATTGTACAAGAAAAAAAAAAAAA [XGTACX_site2927]” was run?
The value was 10.9 ± 0.81.

“ACAAAAAAATGAAAAGAAAAAGATATACCCCAATAT [CACACA_negctrl_site509]” was tested. Which “gcPBM binding intensity (ln)” value did it give?
Its value is 10.4 ± 0.18.

With “ACCGTGGGAGGACACACACACACACCCACATATATA [CACACA_site4339]” as the sequence, how does the “gcPBM binding intensity (ln)” value read?
The value was 11.5 ± 0.95.

Which “gcPBM binding intensity (ln)” value does the source give for “ATTTTTGTTATTACATGTACCCATAATTATTATTAA [XGTACX_site3558]” here?
The value was 11.4 ± 0.81.
